Results from PMC6919601, “Identification of Plasmodium dipeptidyl aminopeptidase allosteric inhibitors by high throughput screening” (PLoS ONE, 2019).
About 230 (0.21%) of roughly 110,000 compounds showed an effect of 50% or more. Some of the results follow.

Biological target: DPAP1 (Plasmodium falciparum, UniProt Q8IIJ9)
Test: primary screen, percent inhibition; read by cleavage of a fluorogenic dipeptide substrate; higher = more effect of the substance
Parameters: species or system P. falciparum D10 trophozoite lysates; single well
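Also: 30 min substrate incubation versus DMSO and 10 µM JCP410 controls.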

DPAP1, sequence (Q8IIJ9 whole entry, looked up): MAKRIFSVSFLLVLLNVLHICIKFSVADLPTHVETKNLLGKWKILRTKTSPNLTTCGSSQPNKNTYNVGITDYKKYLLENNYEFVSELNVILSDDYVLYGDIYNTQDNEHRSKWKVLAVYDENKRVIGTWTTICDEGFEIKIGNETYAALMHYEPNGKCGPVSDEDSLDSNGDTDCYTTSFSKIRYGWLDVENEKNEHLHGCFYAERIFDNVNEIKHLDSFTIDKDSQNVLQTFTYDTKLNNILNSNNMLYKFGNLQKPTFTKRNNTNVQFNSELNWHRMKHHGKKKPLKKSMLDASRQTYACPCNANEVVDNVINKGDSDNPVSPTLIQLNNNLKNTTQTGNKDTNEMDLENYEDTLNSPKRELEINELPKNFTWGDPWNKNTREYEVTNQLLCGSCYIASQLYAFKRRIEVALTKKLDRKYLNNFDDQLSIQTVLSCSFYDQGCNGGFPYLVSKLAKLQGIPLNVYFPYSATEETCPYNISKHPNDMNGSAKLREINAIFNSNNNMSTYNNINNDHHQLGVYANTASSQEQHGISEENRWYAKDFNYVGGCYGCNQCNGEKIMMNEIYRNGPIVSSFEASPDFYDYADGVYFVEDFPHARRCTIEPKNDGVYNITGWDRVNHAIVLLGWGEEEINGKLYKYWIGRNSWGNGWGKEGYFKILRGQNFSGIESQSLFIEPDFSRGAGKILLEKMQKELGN

Compound | % Inhibition @ 10 uM
Cc1ccc2nc(NCc3ccc(C(=O)O)cc3)c3nncn3c2c1 | -0.692%
Nc1nnc(CCS(=O)(=O)c2ccc(Br)cc2)s1 | -1.77%
CCSc1oc(-c2cccs2)nc1S(=O)(=O)c1ccc(Cl)cc1 | 2.17%
Cc1ccc(N2C(=O)CC(N3CCN(Cc4ccc5c(c4)OCO5)CC3)C2=O)c(C)c1 (stereo not shown) | -1.78%
COc1ccc(OC)c(NC(=O)COc2ccccc2C(C)(C)C)c1 | 4.84%
Cc1ccc(NC(=O)COc2ccccc2)cc1F | -2.8%
CC(C)C1Cc2ccccc2-c2nc(S)nc(O)c21 (stereo not shown) | 2.86%
CCO/C(O)=C1/C(CC)=NC2=C(C(=O)CC(C)(C)C2)C1c1ccccc1 (stereo not shown) | 14.4%
CCCNC(=O)C(CC(C)C)N1Cc2ccccc2C1=O (stereo not shown) | 4.36%
N#Cc1ccc(Cn2c(=O)sc3ccccc32)cc1 | 4.22%
O=C1CCCc2c1cc(-c1ccccc1)n2-c1ccc(O)cc1 | -1.52%
CCOC(=O)C1=C(CC)OC(N)=C(C#N)C1c1ccc(F)c(Br)c1 (stereo not shown) | -0.197%
O=C1CCc2nc3sc4c(c3c(=O)n2N1)CCCC4 | 3.04%
CNS(=O)(=O)c1cn(CC(=O)NCCc2ccc(Cl)cc2)cc1S(=O)(=O)NC | -5.32%
COc1ccc(Cc2nnc(SCC(=O)Nc3nc(-c4ccccc4)cs3)o2)cc1 | -6.44%
COC1(c2ccccc2)c2ccccc2Oc2ccccc21 | 4.63%
Cc1ccc(Cn2cc(CCC(=O)N3CCC4(CC3)OCCO4)c3ccccc32)cc1 | -0.822%
Cc1cccc(N(CC(=O)Nc2ccccc2F)S(C)(=O)=O)c1 | -0.62%
COc1ccc(C2C3=C(O)CC(C)(C)CC3=NC(C)=C2C(=O)OCCc2ccccc2)c(OC)c1 (stereo not shown) | 5.94%
C=CCC1(C#N)C(SC)=NC2=C(C(=O)CC(C)(C)C2)C1c1ccccc1 (stereo not shown) | -4.11%
O=C(COc1ccc(S(=O)(=O)NCc2ccccc2)cc1Cl)N1CCCCCC1 | -3.33%
CCOCCCNC(=O)Cn1cnc2c1c(=O)n(C)c(=O)n2C | 0.222%

Compound | % Inhibition @ 10 uM
CCC(C(=O)NC1CCCC1)n1c(SCc2cccc(F)c2)nc2cccnc21 (stereo not shown) | -3.88%
Cn1c(=O)c(S(=O)C(C)(C)C)c(O)c2ccccc21 (stereo not shown) | 4.61%
CC1(C)CC(=O)C2=C(C1)N(c1nnc(SCc3ccccc3)s1)C(=O)CC2c1ccccc1 (stereo not shown) | 0.9%
CCOc1cc(C=C2C(=O)N(C)C(=O)N(C)C2=O)cc(Cl)c1OCc1ccccc1 | -1.93%
Cc1cc(C)c(NC(=O)CNC2CC(C)(C)NC(C)(C)C2)c(C)c1 | 0.986%
CC(NS(=O)(=O)c1ccc([N+](=O)[O-])cc1)c1ccccc1 (stereo not shown) | 3.31%
CCN1CCN(C(=O)CSCc2cnn(-c3ccccc3)c2-n2cccc2)CC1 | 2.27%
Cc1cccc(C(=O)N(Cc2cccs2)C2CCS(=O)(=O)C2)c1 (stereo not shown) | 3.29%
CCN(CC)CC#CC(CN1CCCCC1)N1CCCCC1 (stereo not shown) | -1.98%
O=C(CCSc1nc2cc(Cl)ccc2o1)N1CCCCC1 | 2.01%
CCCCN(C)C(=O)c1ccc(CS(=O)(=O)c2ccccc2C)o1 | -3.09%
CCC1(C)Nc2ccccc2C(=O)N1c1ccc(OC)cc1 (stereo not shown) | -10.8%
COc1cccc(-c2noc(-c3cc4c(ccc5ccccc54)oc3=O)n2)c1OC | -3.73%
Cc1ccc(C(=O)Nc2ccc(Cl)cc2)cc1 | -6.08%
CN(C1CCCCC1)S(=O)(=O)c1ccc(-c2cc(C(F)(F)F)no2)s1 | 4.87%
CCN(c1ccccc1)S(=O)(=O)c1ccc(NC(=O)C2CCCCC2)cc1 | -9.59%
Cc1nc2nc(-c3ccccc3)nn2c(O)c1C | 5.7%
CC(C)c1cc(NCc2cccnc2)n2c(nc3ccccc32)c1C#N | -4.49%
O=C(Cn1c(COc2ccccc2)nc2ccccc21)N1CCOCC1 | -1.72%
Cc1cccn2c(=O)c3cc(C#N)c(=N)n(CC4CCCO4)c3nc12 (stereo not shown) | 2.38%
O=C(NCC1CCNCC1)c1ccccn1 | 1.76%
N#CCCS(=O)(=O)c1ccc(-c2ccc(S(=O)(=O)CCC#N)cc2)cc1 | -7.32%

Compound | % Inhibition @ 10 uM
O=C(c1ccncc1)N1CCNCC1 | 3.01%
CCCN1C(=O)c2[nH]nc(-c3ccc(OC)cc3)c2C1c1ccc(O)cc1 (stereo not shown) | -1.07%
Cc1cccc(OCCOCCN2CCCC2)c1 | -3.78%
CCCCN1C(=O)S/C(=C\c2cc(C)n(C)c2C)C1=O | -3.74%
CCOc1ccc2nc(C(=O)N3CCCCC3)sc2c1 | -5.76%
O=C(CCNS(=O)(=O)c1ccc2nc(O)ccc2c1)NCc1ccc2c(c1)OCO2 | -5.23%
COc1ccc(-c2nc(-c3ccc(OC)c(OC)c3)[nH]c2-c2ccc(OC)cc2)cc1 | 0.132%
CCOC(=O)c1c(NC(=O)c2ccccc2)sc2c1CC(C(C)C)OC2 (stereo not shown) | 0.222%
Cc1cc(C)c(C#N)c(SCC(=O)NCc2ccco2)n1 | 1.76%
O=C(C1c2ccccc2Oc2ccccc21)N1CCCC1 | 2.36%
CCC(C)N(C)Cc1cccc(C2(O)CCN(S(=O)(=O)c3ccc(F)c(C)c3)CC2)c1 (stereo not shown) | 5.53%
CCn1c(C)cc(/C=C2/NC(=O)N(c3ccc(Cl)cc3)C2=O)c1C | 6.4%
COc1cc(C2C(C(=O)c3ccc(Cl)cc3)=C(O)C(=O)N2CCO)ccc1O (stereo not shown) | 2.82%
C=CCN(Cc1nc(-c2ccc(Cl)cc2)no1)C(=O)NC1CCCCC1 | 3.27%
COc1cc(/C=C2\C(=O)NC(=S)N(c3ccc(Cl)cc3)C2=O)ccc1O | -5.23%
Cc1cccc(-c2noc(C(C)NC(=O)c3ccco3)n2)c1 (stereo not shown) | 5.54%
Cc1ccc2oc(C(=O)N(Cc3ccccc3)C3CCS(=O)(=O)C3)c(C)c2c1 (stereo not shown) | 5.31%
Clc1ccc(N2CCN(Cc3ccco3)CC2)cc1 | 1.63%
Cc1c(C(=O)Nc2nc3c(s2)CCCC3)oc2ccccc12 | -2.85%
Cc1ccc(Cl)cc1-n1c(SCC(=O)NCCc2ccccc2)nc2nnc(C)c-2c1N | -2.17%
